Laboratory results reported in article PMC3792905, “HIV-1 Vpr Induces the Degradation of ZIP and sZIP, Adaptors of the NuRD Chromatin Remodeling Complex, by Hijacking DCAF1/VprBP” (PLoS ONE, 2013).
These are yes or no findings as the source states them, for the method shown. In cells and extracts the contact can be indirect. Some entries that bind do so weakly or less than the wild type. For some assays here: Where a sequence is shown, tags or fusion partners need not be part of it.

By UniProt entry, the sequences of proteins in these tests, tags left out.
UniProt P05928: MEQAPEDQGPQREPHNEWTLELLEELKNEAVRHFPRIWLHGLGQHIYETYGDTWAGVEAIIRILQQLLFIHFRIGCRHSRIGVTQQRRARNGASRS
UniProt O14929: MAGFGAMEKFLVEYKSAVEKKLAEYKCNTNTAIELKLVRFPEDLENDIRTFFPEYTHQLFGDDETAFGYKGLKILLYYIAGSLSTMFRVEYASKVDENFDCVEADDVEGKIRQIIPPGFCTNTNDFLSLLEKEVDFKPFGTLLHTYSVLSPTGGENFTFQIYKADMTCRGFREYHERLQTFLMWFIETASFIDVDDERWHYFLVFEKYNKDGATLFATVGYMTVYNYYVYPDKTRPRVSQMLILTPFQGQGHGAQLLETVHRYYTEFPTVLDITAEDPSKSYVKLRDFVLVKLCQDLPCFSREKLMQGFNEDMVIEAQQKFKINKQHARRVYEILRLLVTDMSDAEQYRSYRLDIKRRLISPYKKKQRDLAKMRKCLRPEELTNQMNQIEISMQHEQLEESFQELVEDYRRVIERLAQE
UniProt Q13547: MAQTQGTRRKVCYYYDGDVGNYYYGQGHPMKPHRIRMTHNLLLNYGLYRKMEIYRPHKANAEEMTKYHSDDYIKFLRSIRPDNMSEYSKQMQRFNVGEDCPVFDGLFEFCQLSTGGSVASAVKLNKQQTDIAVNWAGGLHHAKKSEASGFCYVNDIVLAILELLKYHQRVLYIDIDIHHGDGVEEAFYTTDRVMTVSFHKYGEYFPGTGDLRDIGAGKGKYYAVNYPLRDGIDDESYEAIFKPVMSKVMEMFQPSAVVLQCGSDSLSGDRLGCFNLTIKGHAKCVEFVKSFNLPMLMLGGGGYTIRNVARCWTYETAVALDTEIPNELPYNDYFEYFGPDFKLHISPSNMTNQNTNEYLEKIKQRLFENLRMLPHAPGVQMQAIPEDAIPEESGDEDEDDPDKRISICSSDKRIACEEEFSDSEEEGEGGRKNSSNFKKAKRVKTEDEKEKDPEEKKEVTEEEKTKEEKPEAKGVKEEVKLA

What was measured:
FLAG-ZIP = molecular target: T1, FLAG-ZIP (UniProt Q8N5A5); experiment: co-IP; HEK293T cells transfected with HA-tagged Vpr and FLAG-tagged ZIP or sZIP; lysates 48 h post-transfection in SD buffer (50mM Tris-HCl pH 7.5, 150mM NaCl, 0.5% Triton X100); anti-FLAG beads overnight at 4°C, four washes, elution with FLAG peptide; Western blot
T1 sequence: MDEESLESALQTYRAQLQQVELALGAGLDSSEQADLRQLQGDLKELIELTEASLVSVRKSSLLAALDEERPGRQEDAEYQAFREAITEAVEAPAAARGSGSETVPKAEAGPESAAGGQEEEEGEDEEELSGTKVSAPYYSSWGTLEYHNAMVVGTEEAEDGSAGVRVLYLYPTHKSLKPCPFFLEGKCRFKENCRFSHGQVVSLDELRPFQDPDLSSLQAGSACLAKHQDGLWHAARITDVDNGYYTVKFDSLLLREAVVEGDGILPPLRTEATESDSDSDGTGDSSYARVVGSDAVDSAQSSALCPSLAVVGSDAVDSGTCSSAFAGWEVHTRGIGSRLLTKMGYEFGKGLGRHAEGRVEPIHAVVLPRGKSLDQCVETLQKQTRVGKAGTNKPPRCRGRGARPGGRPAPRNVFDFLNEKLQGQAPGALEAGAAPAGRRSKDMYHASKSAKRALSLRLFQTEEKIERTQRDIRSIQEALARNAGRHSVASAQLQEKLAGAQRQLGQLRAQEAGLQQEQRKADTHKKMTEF

FLAG-sZIP = molecular target: T2, FLAG-sZIP (UniProt Q8N5A5); experiment: as above
T2 sequence: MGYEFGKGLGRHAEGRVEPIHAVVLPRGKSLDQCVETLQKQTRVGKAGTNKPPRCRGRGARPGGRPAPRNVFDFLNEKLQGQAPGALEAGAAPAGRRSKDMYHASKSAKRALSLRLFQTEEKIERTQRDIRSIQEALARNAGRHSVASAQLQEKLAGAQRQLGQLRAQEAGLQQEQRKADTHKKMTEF

[1] = molecular target: HA-tagged Vpr from HIV-1 LAI (HIV-1 (LAI)) (UniProt P05928); experiment: co-IP; HEK293T cells transfected with HA-tagged Vpr or empty vector; lysates 48 h post-transfection in SD buffer; anti-HA beads overnight at 4°C, four washes, elution with HA peptide; Western blot of endogenous proteins

Substance: HA-tagged Vpr from HIV-1 LAI (from UniProt P05928 1-96)
- binding (FLAG-ZIP): binds
- binding (FLAG-sZIP): binds

Substance: Histone acetyltransferase 1 (HAT1) (from UniProt O14929 1-419) (enzyme)
- binding (FLAG-ZIP): binds
- binding (FLAG-sZIP): binds
- binding [1]: binds

Substance: histone deacetylase 1 (HDAC1) (from UniProt Q13547 1-482) (enzyme)
- binding (FLAG-ZIP): binds
- binding (FLAG-sZIP): binds
- binding [1]: no binding
